Assay results: PubChem BioAssay AID485281 (National Center for Advancing Translational Sciences (NCATS), 2010)
Screen size: about 350,000 compounds; about 260 (0.074%) were called active. The inconclusive results got no clear call from the source; some entries with a clear call stand among them for comparison. Calls come from the whole dose curve; as a rule, active = well fitted inhibition curve with a large enough effect; inconclusive = small, poorly fitted or top-dose-only effect; inactive = no such curve, though single readings can be large or run the other way. A potency beside an inconclusive call is a rough fit, not a confirmed value.
% is set by controls: 0 for no effect and ±100 for the full control effect; potency is the fitted concentration of half-maximal effect; tags give direction and shape of the fitted curve.
Note: nearly all actives have a fitted effect of over 20% in size.

Each compound was assayed against Ferritin light chain (Equus caballus) (UniProt P02791) (assay: qHTS Assay for Identification of Novel General Anesthetics). Settings: apoferritin/1-aminoanthracene competitive binding, fluorescence; activity change, negative = displacement: at 77.5 µM (top of the series).
Chain of UniProt P02791 (P02791 whole entry, looked up): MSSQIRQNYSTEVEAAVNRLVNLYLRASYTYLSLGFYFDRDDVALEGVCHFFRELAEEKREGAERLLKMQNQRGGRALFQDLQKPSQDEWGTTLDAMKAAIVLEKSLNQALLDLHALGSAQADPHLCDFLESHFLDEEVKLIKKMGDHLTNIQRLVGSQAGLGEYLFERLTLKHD
Method in brief: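 Apoferritin-based anesthetic binding model; compound displacement of fluorescent 1-AMA measured as endpoint fluorescence after 10 minutes at room temperature, scaled to free-ligand and complex controls.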
In the case of Cc1cc(OCc2cc(C(=O)NCc3csc(C(C)C)n3)no2)cc(C)c1Cl, the Potency was inconclusive: 3.55 µM [inhibitor, full curve].
For CCCOC(=O)c1c(-c2ccccc2)c(-c2ccccc2)nn(C)c1=O, the Potency was inconclusive: 35.5 µM [inhibitor, partial curve].
CCc1sc(C(=O)N2CCc3ccccc32)cc1C was tested, and the Potency was inconclusive: 17.8 µM [inhibitor, partial curve].
With C=CCN(CC=C)S(=O)(=O)c1ccc(NC(=S)NC(=O)C2CC2)cc1 the Potency was inconclusive: 25.1 µM [inhibitor, partial curve].
With N#C/C(=C(/O)CN1C(=O)c2ccccc2C1=O)c1nc2ccccc2[nH]1 the Potency was inconclusive: 39.8 µM [inhibitor, single point].
With COc1cccc2c(=O)n(CC(=O)N3CCCc4ccccc43)ccc12 the Potency was inconclusive: 39.8 µM [inhibitor, single point].
CCn1cnc2c1c(=O)n(CC(=O)Nc1ccc3c(c1)OC(F)(F)O3)c(=O)n2Cc1ccccc1 was tested, and the Potency was inconclusive: 6.31 µM [inhibitor, partial curve].
COc1ccc(/C=C(/NC(=O)c2ccco2)C(=O)N2CCCCC2)cc1 was tested, and the “activity change, negative = displacement” value was inactive: -5.42%.
In the case of O=C(c1cnn2c1NC(c1ccc(Br)cc1)CC2C(F)(F)F)N1CCN2CCCC2C1 (centres undefined), the Potency was inconclusive: 35.5 µM [inhibitor, single point].
O=C1c2ccccc2C(=O)N1CSc1nnc(Nc2ccccc2)s1 was tested, and the “activity change, negative = displacement” value was inactive: -12.4%.
For CC1CCc2nc(NC(=O)c3cc(C(C)(C)C)nn3C)sc2C1 (centres undefined), the “activity change, negative = displacement” value was inactive: -2.68%.
For O=S(=O)(N/N=C/c1cn(Cc2ccccc2)c2ccccc12)c1ccccc1, the Potency was inconclusive: 3.98 µM [inhibitor, full curve, poor fit].
CC[C@H](C)C(N)C(=O)O (some centres undefined) was tested, and the “activity change, negative = displacement” value was inactive: -2.97%.
With Cc1ccc(-n2nc3c(N4CCCC(C(=O)NCc5ccccc5C)C4)nnc(C)c3c2C)cc1 (centres undefined) the Potency was inconclusive: 7.94 µM [inhibitor, full curve].
With CCOC(=O)N1CCN(C(=O)CSc2ccc3nnc(-c4ccccn4)n3n2)CC1 the “activity change, negative = displacement” value was inactive: -5.04%.
With CN(C)c1ccc(N/C=C/C(=O)C(C)(C)C)cc1 the Potency was inconclusive: 35.5 µM [inhibitor, partial curve].
Cc1ccc(N(Cc2ccc([N+](=O)[O-])cc2)C(=O)c2ccco2)cc1 was tested, and the Potency was inconclusive: 31.6 µM [inhibitor, partial curve].
Cc1ccccc1NC(=O)Cn1nc(-c2ccc(Cl)s2)ccc1=O was tested, and the Potency was inconclusive: 31.6 µM [inhibitor, single point].
Cc1ccc2scc(N3CCCC(C)C3)c(=O)c2c1 (centres undefined) was tested, and the “activity change, negative = displacement” value was inactive: -11%.
With CC(=O)c1csc(Nc2ccccc2Cl)n1 the Potency was inconclusive: 14.1 µM [inhibitor, partial curve].
With C/C(=N/NC(=O)CNC(=O)C1COc2ccccc2O1)c1ccc2c(c1)OCCO2 (centres undefined) the Potency was inconclusive: 10 µM [inhibitor, partial curve].
For C=CCc1c(C)nc(SC)nc1Nc1ccc(C(C)=O)cc1, the Potency was inconclusive: 17.8 µM [inhibitor, partial curve].
In the case of O=C(NCc1nc2ccccc2[nH]1)C1=C[C@H](c2ccc(Br)cc2)C[C@H](OCc2ccc(CO)cc2)O1, the “activity change, negative = displacement” value was inactive: 4.43%.
For CCCCN1C(=O)C(=O)N(c2ccccc2)C1=S, the Potency was inconclusive: 39.8 µM [inhibitor, single point].
With COC(=O)CSc1snnc1-c1ccc(F)cc1 the Potency was inconclusive: 50.1 µM [inhibitor, single point].
In the case of COc1ccc(N2CC(C(=O)Nc3nnc(SCc4cccnc4)s3)CC2=O)cc1 (centres undefined), the Potency was inconclusive: 20 µM [inhibitor, partial curve].
Cc1c(Cl)c(C(=O)N2CCCCCC2)nn1C was tested, and the Potency was inconclusive: 28.2 µM [inhibitor, single point].
For COc1ccccc1N1CCN(C(=O)c2cc(-c3ccccc3)on2)CC1, the Potency was inconclusive: 56.2 µM [inhibitor, single point].
For Cc1cc(C)cc(OCC(=O)N2CCCCCC2)c1, the Potency was inconclusive: 50.1 µM [inhibitor, single point].
In the case of C=CCn1c(Br)nc2c1c(=O)n(C)c(=O)n2C, the Potency was inconclusive: 56.2 µM [inhibitor, single point].
With COc1ccc(-c2nc(-c3ccccc3OC)no2)cc1OC the Potency was inconclusive: 35.5 µM [inhibitor, partial curve].
For COc1ccccc1N(C)S(=O)(=O)c1ccc(C(=O)OCC(=O)N2CCCCCC2)cc1, the Potency was inconclusive: 20 µM [inhibitor, partial curve].
In the case of COc1cc(Cl)c(NS(=O)(=O)c2cc3[nH]c(=O)c(=O)[nH]c3cc2C)c(OC)c1, the Potency was inconclusive: 3.55 µM [inhibitor, full curve].
COc1ccc(CNC(=O)CCc2c(C)nn(-c3ccc(N4CCCC4)nn3)c2C)cc1 was tested, and the “activity change, negative = displacement” value was inactive: -8.08%.
In the case of COc1ccc(/C=C\C(=O)c2c(O)ccc3c(C)cc(=O)oc23)cc1, the Potency was inconclusive: 44.7 µM [inhibitor, single point].
CO/N=C/c1ccc(N2CCN(C(=O)c3cccc(C(F)(F)F)c3)CC2)c([N+](=O)[O-])c1 was tested, and the Potency was inconclusive: 39.8 µM [inhibitor, partial curve].
With CN1CCN(C(=O)c2cc(COc3c(F)cccc3F)on2)CC1c1ccccc1 (centres undefined) the “activity change, negative = displacement” value was inactive: -8.63%.
With O=C(COc1ccc(Br)cc1)c1ccc2c(c1)CCCC2 the Potency was inconclusive: 56.2 µM [inhibitor, single point].
With CC(O)(c1ccc(Cl)cc1)c1ccc(Cl)cc1 the “activity change, negative = displacement” value was inactive: -15.3%.
In the case of Clc1ccccc1CSc1snnc1-c1ccccc1, the Potency was inconclusive: 28.2 µM [inhibitor, partial curve].
CC(C)Sc1nc(N)c2c3c(sc2n1)CN(C)CC3 was tested, and the “activity change, negative = displacement” value was inactive: -2.27%.
With C[C@]1(OC(=O)/C=C\c2ccccc2)C[C@@H](O)[C@@]2(O)C=CO[C@@H](O[C@H]3O[C@@H](CO)[C@@H](O)[C@@H](O)[C@@H]3O)[C@H]21 the “activity change, negative = displacement” value was inactive: 4.63% [at 29.3 µM].
Cc1cc(SCc2ccc(Cl)c(Cl)c2)nc(=O)[nH]1 was tested, and the Potency was inconclusive: 22.4 µM [inhibitor, partial curve].
For Cc1ccc(NC(=O)c2oc3ccccc3c2NC(=O)C2CCCCC2)cc1, the Potency was inconclusive: 56.2 µM [inhibitor, partial curve].
